This is an account of results in paper PMC8086230 (Acta Pharmacologica Sinica, 2021).

For the experiment, the target named is T1, rat renal 11β-HSD2 (Rattus norvegicus, UniProt P50233).
T1 sequence (P50233 1-400): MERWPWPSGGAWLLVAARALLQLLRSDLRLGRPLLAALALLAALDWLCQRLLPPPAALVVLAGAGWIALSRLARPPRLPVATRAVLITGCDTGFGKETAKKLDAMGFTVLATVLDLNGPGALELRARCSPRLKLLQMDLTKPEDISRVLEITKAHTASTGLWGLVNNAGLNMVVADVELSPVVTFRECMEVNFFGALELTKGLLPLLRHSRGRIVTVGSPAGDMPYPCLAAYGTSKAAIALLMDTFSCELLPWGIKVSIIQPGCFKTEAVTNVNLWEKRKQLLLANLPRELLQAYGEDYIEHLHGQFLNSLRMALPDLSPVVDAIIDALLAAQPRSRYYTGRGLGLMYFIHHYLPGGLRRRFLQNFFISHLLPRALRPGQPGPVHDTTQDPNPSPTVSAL
As to conditions: read-out: Km for the rat enzyme.

Regarding `C[C@]12CCC(=O)C=C1CC[C@@H]1[C@@H]2[C@@H](O)C[C@@]2(C)[C@H]1CC[C@]2(O)C(=O)CO` [cortisol], the Km was 0.45 µM.

As a reminder, the Km is the concentration of substrate that gives half-maximal velocity.
